Source: the supplement of paper PMC12632987
The full ranking holds about 1,800 sequences; the median of “median log2 fold change of GCK-ALFA target abundance (FLAG IP / Myc IP barcode read proportion)” is about 0.14, and the lowest 2% start at about -0.84. Some of the results follow.

T1: TRAF2, Q12933
T1 chain: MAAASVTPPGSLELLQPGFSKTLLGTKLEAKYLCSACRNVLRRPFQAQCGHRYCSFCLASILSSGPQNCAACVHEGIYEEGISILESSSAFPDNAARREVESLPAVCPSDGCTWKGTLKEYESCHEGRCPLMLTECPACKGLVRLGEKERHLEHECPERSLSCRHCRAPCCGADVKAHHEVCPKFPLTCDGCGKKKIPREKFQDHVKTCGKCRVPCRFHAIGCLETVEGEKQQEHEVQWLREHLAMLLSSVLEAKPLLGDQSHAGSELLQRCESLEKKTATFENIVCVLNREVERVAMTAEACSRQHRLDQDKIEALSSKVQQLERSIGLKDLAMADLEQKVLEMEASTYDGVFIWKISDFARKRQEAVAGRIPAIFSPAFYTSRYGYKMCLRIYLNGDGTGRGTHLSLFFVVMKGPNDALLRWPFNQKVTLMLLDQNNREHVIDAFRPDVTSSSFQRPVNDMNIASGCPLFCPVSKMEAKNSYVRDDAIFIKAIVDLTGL

B1: traf2_out_18_117_1799 (protein)
chain: SELQEAQERFQRTSEEFERALEEAQRVATQLIEAHPKALPAEATDAIVEFGELKRRFLQLQQLHQENPNNLELQKQIVEELERLLEETRRVLEELRRILA
B2: traf2_out_20_3_2128 (protein)
chain: EELEKEAEKALKEAIKLLEEAAALATPERAAVLRELAATLEASRSLSPSDRLVTVSEIRRQVRALALEAAAAGDAELAAVLEKAADALNKLMGLLYKIIE
B3: traf2_out_19_16_1983 (protein)
chain: AEEEAERLLAEMRRHLDEALRLAEETVANLDKLSRDELMDRLVEISELVRRAQEALQRALELLADDPERRAAIRAEYDERLDRINRLMTKIVDRLLELLK
B4: traf2_out_20_3_2189 (protein)
chain: EELEEELEEELEEAEKLLKEAAKLADPETAKKLEELIKRLKESRELSYEDQLVELSRIRREVLRLAEEAKAAGKEELAKKLEEAAEELGEAMNLVYKIIE
B5: traf2_out_6_156_2444 (protein)
chain: MKEEILEETKKKLKELIKKLSEASEEKKIIYISKIAGTVYKALQKLRDAGFSLEEIKEFAEEINKFIKEELKKYGLDEKTANLTLSSINAVFEVALEEAK
B6: traf2_out_9_108_2577 (protein)
chain: MTREEKLEEIFEAVKKLAEEFLEENDLSEELKEDLKAAIEQAEKLYKEGEKETAIILLAISLANTAYKVGEEAVEKVLARLKEIDPRAYSAARRMVELLK
B7: traf2_out_18_3_1926 (protein)
chain: SAEELQEVSDRIDEIIDEARAKAREALARIRARHPEEAARVDELEALLDAGAGPFGILRELAELAKELGDEELAEELEEFLKEKSRELSELVDEYLKLRK
B8: traf2_out_6_156_2402 (protein)
chain: MVEEILEETNAEVEKLIKELAAASEEKKIAYISKIAGTVYRGLQRLREAGASVEELKAFGEKVNKELEKWLDKEGLPQSIKDLILSSVNAVFDVALAEAA
B9: traf2_out_13_95_1072 (protein)
chain: TKELAEKINEIADRAEERALALLAAAKAELAGDPAAVAVLDEAARLARTRGIRAAIHLLRQAKAANPAHAAAFDALIAELEAIRREAGREVARLIKEYEE
B10: traf2_out_13_95_1184 (protein)
chain: SEETKKKINEIADDMLEKVEKILTELAEKVKDDPEVKKAVEEIKKTAVTKGIHTAIGELKELAKKYPEYKELINEAIEKIEEIRREAGKKVAEILKEEEE
B11: traf2_out_13_95_1187 (protein)
chain: EEEKRKRYREVTNAIADELLDHADELIDRITAATGDEALGAELRRVLNRYGVSALIHFIREKAEEDPEHKELYERAARELEEKRREAGRRVAEAEKEIEA
B12: traf2_out_11_155_709 (protein)
chain: SKELEINQKLVDEVSEIADEALEKLEKLIEEIEKRDPEVAAELRAVLEANKDAGYRTKLLLAIAVLKKAGYEEEAKEVEKILEEAQKKANELAKEAEKKK
B13: traf2_out_18_117_1805 (protein)
chain: SDLAAAQAAFAAAVAAFEAERRRAQRVAGQLIEKHPHNLPEEATDAMVEFGEAARRHAELVQTAAAHADDLATLKALTAEVEALTARMREIRDRLEELLK
B14: traf2_out_13_95_1069 (protein)
chain: SAETAAKINALADEAEARVLALLDAARAALADDPEAVAALDAARRAAETRGISAAIHLLRQARAAQPAHAAAFDALIAELEAIRRELGRKVAEILKEEKE
B15: traf2_out_8_174_2573 (protein)
chain: AEAERLRIVADVATEFADILDEAEKKLEALKDLPLEELKKEAEKIKKEALAKIDEITAKYTAQVDAETAALINRVANSAKTQIENMVKGFIERKKLKEEA
B16: traf2_out_20_3_2195 (protein)
chain: SELEKKLEEELEEAIKLLKEAAKLADEETAKVIEELIKRIKESRSLSYSDQLVVLSEVRREVLLLAEEARKAGDEELAKVLEEAAEELNEAMNILYEIIK
B17: traf2_out_18_3_1898 (protein)
chain: SEEKLKEISEKIDEIIDEVTAKAREVLDWLEKNKPEVKERIAALRADLEAGAGPFGILRELARLAKEAGEEEKAKEIEEFLKEKSKELQELVDEYLELRA
B18: traf2_out_6_156_2388 (protein)
chain: MKEEILKETKEKLDELIKEMSKAPEEKKIVWINKIAGVVYRALQRLREAGASLEELKKFSEEIREHLEESAKKYGLPEDVKNLLLSSINAVFEVALEEAK
B19: traf2_out_17_178_1721 (protein)
chain: SKEEYRKKISELTDELIDLSEAAAARLLALARAEGTLSPEELAALEAARRRGSPNDVLALGERAAPRLASAAEAQALLDAFRKESRALAKEIAAAYEKYE
B20: traf2_out_5_189_2318 (protein)
chain: SPAAEEQAEDRALARRLAARARALLAELRARGASPEEIKEAVLAEIRKLPIEEAQLYTGIVYAIGTNIAEVEGDEALKAAFEEMRKEALALIAEREKAAA
B21: traf2_out_11_169_826 (protein)
chain: EEAERNRKINEKALELNDEAVKKLEEFALKLAKEAGLDVEAVKAIFEKNKGKSLSAIAAELIRYFTSLGKEEEAKKVLEKYEELKEEINKEMSKFLKELE
B22: traf2_out_1_158_909 (protein)
chain: STDVGLLASSVTSVLDVWAEEAKERGLERAAALFEELREEVLRLYEENKDASLEEMAEKVRELVEEFERRAEELDEEERELVRRAFRQIRSAIDQVVRLA
B23: traf2_out_6_156_2387 (protein)
chain: KKEEILEKAKKEIKELIEKLSKAPESKKIAYINKIAGTVYRALQQLRDLGASLEELEAFTKEVIEFVKKLMEENGLDESTKNLIIGSINAVGEVALEEAK
B24: traf2_out_11_155_715 (protein)
chain: EEKKKLNQELVDEVMAIADRAMAELEALIARVAAEDPEVAARLRAVLAANSDHGYTTKLLLAARVLREAGLEEEAAEVEAILARAQAEMNKLYKEYEKKL
B25: traf2_out_17_178_1687 (protein)
chain: TKEEQRKRISALTDELIDLTEATGAELLAIARAEGTLTPEELAALEAARRAGSNRTFLALAERIAPKLKTAAEARALLDAFRARAAALSAEIAAAYEKYE
B26: traf2_out_11_169_784 (protein)
chain: EEEEKNRKFNDFALEKEDEAKKELKKFALELAKKSGLDVEEVEKIFEDNKGKSLSAIAAALIKYFKEKGNEESAKAILEKYEELQEKINKEGSAFLKELE
B27: traf2_out_3_89_2291 (protein)
chain: SMEKEKKIKEAKERAERYVKGFEKNARRVAKEMLEEGHSLETLRGVLEAARTAIVETFGETLKEEGIDKETRDKILEELKKKLDEIVEEVVEEAKKRREE
B28: traf2_out_6_166_2470 (protein)
chain: EEEKLRRIREIVERLGEYPAEIVIEAFERLAEERDDRRALLARQIASGVRQGQKAGLPVSTILSAFADGMIALGVPIEEILELFEEALEIAEELAEEREE
B29: traf2_out_5_63_2352 (protein)
chain: SERDELTALAREADRLALAALKAREAGNEEEADRLLEEAVEDPELARLVIGILRGLARYYELRGDKPEQAKLARELAERLAARLAAREAAAAAAAEAAAA

Target: T1, TRAF2, Q12933
Experiment: median log2 fold change of GCK-ALFA target abundance (FLAG IP / Myc IP barcode read proportion) (log2 ratio); each designed protein is fused to an ALFA-tag nanobody in HEK293 cells to bring the named protein to FLAG-tagged glucokinase (GCK); Myc marks an untargeted standard; higher = target protein stabilised (more abundant)
Conditions: target protein: 3xFLAG-MCP-GCK-ALFA reporter; HEK293 landing pad (RPLP)
Procedure, shortened: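 HEK293 landing-pad cells received a recombined binder library fused to the ALFA nanobody and were induced with 2 μg mL^−1 doxycycline, then transfected with a plasmid encoding a FLAG-tagged target and a Myc-tagged standard. Lysates were collected after 48 h for anti-FLAG and anti-Myc immunoprecipitation, and the circular RNA barcodes were reverse transcribed, amplified and sequenced. Target abundance for each binder is the median log2 ratio of FLAG to Myc barcode read proportions. Barcodes had to reach a proportion of at least 10^−7 in both replicates, each binder needed at least 3 barcodes per replicate, a pseudocount of 10^−6 was applied, and the two replicates were pooled.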

Row | Binder | median log2 fold change
1 | B1 | 0.225
2 | B2 | 0.231
3 | B3 | -0.215
4 | B4 | -0.158
5 | B5 | -0.0805
6 | B6 | -0.396
7 | B7 | -0.0573
8 | B8 | 0.00841
9 | B9 | -0.606
10 | B10 | -0.726
11 | B11 | -0.0218
12 | B12 | 0.502
13 | B13 | 0.223
14 | B14 | -0.107
15 | B15 | 0.318
16 | B16 | 0.098
17 | B17 | -0.192
18 | B18 | 0.0494
19 | B19 | 0.0361
20 | B20 | 0.171
21 | B21 | 0.166
22 | B22 | 0.175
23 | B23 | -0.104
24 | B24 | 0.284
25 | B25 | 0.128
26 | B26 | -0.181
27 | B27 | -0.996
28 | B28 | -0.369
29 | B29 | 0.253
